Hit rate of the full screen: of about 350,000 compounds, about 31,000 (8.9%) were called active. The inconclusive results got no clear call from the source; some entries with a clear call stand among them for comparison. The call rests on the fitted dose curve; in most records, active means well fitted inhibition curve with a large enough effect; inconclusive means small, poorly fitted or top-dose-only effect; inactive means no such curve, though single readings can be large or run the other way. A potency beside an inconclusive call is a rough fit, not a confirmed value.
Target: Histone-lysine N-methyltransferase EHMT2 (Homo sapiens) (UniProt Q96KQ7)
Assay: qHTS Assay for Inhibitors of Histone Lysine Methyltransferase G9a; further: nearly all actives have a fitted effect of over 75% in size
Conditions: G9a H3K9 monomethylation, AlphaScreen, 2 h; activity, negative = inhibition: at 59 µM (top of the series) unless noted
In short: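 G9a (20 nM) was preincubated 15 min with compound, then reacted 2 h at room temperature with 500 nM biotin-H3K9 peptide and 20 µM SAM. Monomethyl-H3K9 detected by AlphaScreen using anti-H3K9me1 antibody.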
On the % scale 0 is the no-effect control and ±100 the full control effect; potency means the concentration at half of the fitted maximal effect; tags describe the fitted curve by direction and shape.

Chain of UniProt Q96KQ7 (Q96KQ7 whole entry, looked up): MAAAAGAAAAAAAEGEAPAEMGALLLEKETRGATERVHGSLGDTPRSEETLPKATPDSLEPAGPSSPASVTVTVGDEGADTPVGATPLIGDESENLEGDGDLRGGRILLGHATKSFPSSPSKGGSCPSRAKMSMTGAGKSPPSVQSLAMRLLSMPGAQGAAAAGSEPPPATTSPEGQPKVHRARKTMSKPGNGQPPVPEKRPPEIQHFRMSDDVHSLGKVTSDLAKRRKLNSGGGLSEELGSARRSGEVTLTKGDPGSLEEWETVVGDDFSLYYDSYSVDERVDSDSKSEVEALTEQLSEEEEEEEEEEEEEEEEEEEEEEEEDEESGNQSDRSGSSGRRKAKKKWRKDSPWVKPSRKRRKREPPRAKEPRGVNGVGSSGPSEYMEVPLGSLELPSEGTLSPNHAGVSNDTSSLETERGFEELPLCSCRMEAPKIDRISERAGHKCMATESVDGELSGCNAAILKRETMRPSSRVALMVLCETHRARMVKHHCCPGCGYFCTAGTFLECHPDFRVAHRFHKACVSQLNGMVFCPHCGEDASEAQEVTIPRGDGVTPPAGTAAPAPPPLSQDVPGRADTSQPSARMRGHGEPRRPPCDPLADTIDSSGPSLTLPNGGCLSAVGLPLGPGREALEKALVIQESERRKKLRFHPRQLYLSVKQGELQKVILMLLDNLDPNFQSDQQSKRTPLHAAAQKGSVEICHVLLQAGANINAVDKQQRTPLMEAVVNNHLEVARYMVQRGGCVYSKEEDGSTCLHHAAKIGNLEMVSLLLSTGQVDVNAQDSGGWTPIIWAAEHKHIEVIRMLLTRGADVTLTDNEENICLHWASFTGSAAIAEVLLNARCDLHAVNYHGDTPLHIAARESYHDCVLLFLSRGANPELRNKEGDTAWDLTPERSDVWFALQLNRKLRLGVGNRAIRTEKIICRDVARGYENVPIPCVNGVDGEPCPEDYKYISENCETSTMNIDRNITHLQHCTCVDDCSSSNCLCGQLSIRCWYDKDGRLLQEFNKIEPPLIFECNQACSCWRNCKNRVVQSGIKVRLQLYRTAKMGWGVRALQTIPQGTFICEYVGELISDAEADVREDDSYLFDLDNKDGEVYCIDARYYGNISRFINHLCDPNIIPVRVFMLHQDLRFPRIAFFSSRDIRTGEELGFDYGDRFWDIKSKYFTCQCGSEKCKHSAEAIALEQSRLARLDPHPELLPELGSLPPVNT

Compound	Potency	activity, negative = inhibition
Cc1ccc(-c2nc3ccc(NS(=O)(=O)c4ccccc4)cc3[nH]2)o1	inconclusive: 39.8 µM [inhibitor, single point]	
O=C(NCC1CCCN1S(=O)(=O)c1cccs1)c1ccc([N+](=O)[O-])cc1 (centres undefined)	inconclusive: 56.2 µM [inhibitor, partial curve, poor fit]	
Cc1ccc2c(c1)c(=O)c(S(=O)(=O)c1ccc(F)cc1)cn2CC(=O)Nc1ccc2c(c1)OCO2	inactive	
CCOC(=O)c1oc2c(O)c(O)ccc2c(=O)c1-c1nncn1-c1ccccc1	active: 3.16 µM	
O=C(COC(=O)c1c(F)cccc1F)Nc1ccc2[nH]c(=O)[nH]c2c1		inconclusive: -52.5% [inhibitor]
COc1ccc2c(Sc3ccccc3)c(C(=O)NCCN(C)C)[nH]c2c1	inconclusive: 25.1 µM [inhibitor, partial curve, poor fit]	
COc1ccc(C(=O)/C(=C/c2cccs2)c2nc3ccccc3o2)cc1	inconclusive: 10 µM [inhibitor, partial curve, poor fit]	
CCc1ccc(CN(Cc2ccco2)C(=O)c2cc(-c3ccc(Cl)cc3)on2)cc1	inactive	
CCN(CC(=O)Nc1ccccc1C(F)(F)F)CC(=O)NC1CC1	inconclusive: 4.47 µM [inhibitor, single point]	
O=c1c2c(nc3nc(COc4ccccc4)[nH]n13)CCC2		inactive: -33.3% [at 12.7 µM]
OCC1(C2=NOC(O)(C(F)(F)F)C2)CCCCC1 (centres undefined)	inconclusive: 79.4 µM [inhibitor, single point]	
CCOc1ccc(-c2cc3c(=O)n(CC(=O)Nc4c(C)cccc4C)ccn3n2)cc1	inactive	
Cc1c(C(=O)OCCOc2ccccc2)[nH]c2c1C(=O)CCC2	inconclusive: 100 µM [inhibitor, single point]	
Brc1ccc(Oc2ncc(CN3CCN(c4ccccc4)CC3)s2)cc1		inactive: -5.76% [at 12.7 µM]
CC(C)Cc1nnc(NC(=O)CS(=O)(=O)Cc2ccccc2)s1	active: 8.91 µM	
CC(C)c1ccc(C2CC(=O)N3CN(C)CSC3=C2C#N)cc1 (centres undefined)	active: 1.58 µM	
CC[C@@]12C(=O)N(c3cccc(F)c3)C(=O)N1[C@H](c1ccc(Br)cc1)[C@@H]1C(=O)N(C(C)(C)C)C(=O)[C@@H]12		inactive: -5.3% [at 2.33 µM]
CN(/N=C\c1ccc(O)c(O)c1)c1nc(-c2ccccc2)cc(-c2ccccc2)n1	active: 39.8 µM	
Cc1ccc(-n2ncc(C(=O)NCc3cccs3)c2C2CCN(C(=O)OC(C)(C)C)CC2)cc1C	inactive	
